This is one part of the list. The list includes weakly bound sequences.
biological target: T1, MBP-FoxP3dN (UniProt Q99JB6); experiment: PD-seq (MBP pull-down with sequencing); conditions: 20 mM Tris-HCl pH 7.5, 100 mM NaCl, 1.5 mM MgCl2, 0.4 uM protein, 0.1 uM dsDNA library, 30 min, room temperature, amylose pull-down; high values mean tight binding; double strand, one strand shown
T1 sequence: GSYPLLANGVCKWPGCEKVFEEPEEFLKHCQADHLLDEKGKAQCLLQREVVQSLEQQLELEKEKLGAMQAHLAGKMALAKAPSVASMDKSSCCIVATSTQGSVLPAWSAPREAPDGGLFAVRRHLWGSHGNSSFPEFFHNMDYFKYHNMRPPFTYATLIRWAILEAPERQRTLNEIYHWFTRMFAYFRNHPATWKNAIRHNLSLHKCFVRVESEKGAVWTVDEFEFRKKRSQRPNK

Sequence	binding signal (RPM ratio (pull-down/input))
GATGATTGTTCTCCCAGCTGATGAATTGAAAAATTCGAGTAAACAAATTTTCCTAATCTTTCTGTTCAAGCGCCATCTAC	0.21
GATGATTGTTCTCCCAGCTGATGAATTATAAAAATCGAGTAAACAAATTTTCCTAATCTTTCTGTTCAAGCGCCATCTAC	0.211
GATGATTGTTCTCCCAGCTGATGAATTATAATTATCGAGTAAACAAATTTTCCTAATCTTTCTGTTCAAGCGCCATCTAC	1.52
GATGATTGTTCTCCCAGCTGATGAATTGCTAGGTTCGAGTAAACAAATTTTCCTAATCTTTCTGTTCAAGCGCCATCTAC	0.589
GATGATTGTTCTCCCAGCTGATGAATTGCGCGATTCGAGTAAACAAATTTTCCTAATCTTTCTGTTCAAGCGCCATCTAC	1.82
GATGATTGTTCTCCCAGCTGATGAATTTTTCAGATCGAGTAAACAAATTTTCCTAATCTTTCTGTTCAAGCGCCATCTAC	0.164
GATGATTGTTCTCCCAGCTGATGAATTCGGACTCTCGAGTAAACAAATTTTCCTAATCTTTCTGTTCAAGCGCCATCTAC	1.44
GATGATTGTTCTCCCAGCTGATGAATTGTTGCTGTCGAGTAAACAAATTTTCCTAATCTTTCTGTTCAAGCGCCATCTAC	2.32
GATGATTGTTCTCCCAGCTGATGAATTTTAGTGATCGAGTAAACAAATTTTCCTAATCTTTCTGTTCAAGCGCCATCTAC	0.559
GATGATTGTTCTCCCAGCTGATGAATTAGATGTGTCGAGTAAACAAATTTTCCTAATCTTTCTGTTCAAGCGCCATCTAC	2.71
GATGATTGTTCTCCCAGCTGATGAATTGTCTTATTCGAGTAAACAAATTTTCCTAATCTTTCTGTTCAAGCGCCATCTAC	0.796
GATGATTGTTCTCCCAGCTGATGAATTAAACGGATCGAGTAAACAAATTTTCCTAATCTTTCTGTTCAAGCGCCATCTAC	0.213
GATGATTGTTCTCCCAGCTGATGAATTTAGCGGCTCGAGTAAACAAATTTTCCTAATCTTTCTGTTCAAGCGCCATCTAC	0.792
GATGATTGTTCTCCCAGCTGATGAATTATTCAAGTCGAGTAAACAAATTTTCCTAATCTTTCTGTTCAAGCGCCATCTAC	0.3
GATGATTGTTCTCCCAGCTGATGAATTACAGTTCTCGAGTAAACAAATTTTCCTAATCTTTCTGTTCAAGCGCCATCTAC	0.802
GATGATTGTTCTCCCAGCTGATGAATTATAGTTTTCGAGTAAACAAATTTTCCTAATCTTTCTGTTCAAGCGCCATCTAC	0.824
GATGATTGTTCTCCCAGCTGATGAATTGACGACCTCGAGTAAACAAATTTTCCTAATCTTTCTGTTCAAGCGCCATCTAC	0.316
GATGATTGTTCTCCCAGCTGATGAATTATGCTATTCGAGTAAACAAATTTTCCTAATCTTTCTGTTCAAGCGCCATCTAC	4.21
GATGATTGTTCTCCCAGCTGATGAATTTTTCGGTTCGAGTAAACAAATTTTCCTAATCTTTCTGTTCAAGCGCCATCTAC	0.292
GATGATTGTTCTCCCAGCTGATGAATTTACTACTTCGAGTAAACAAATTTTCCTAATCTTTCTGTTCAAGCGCCATCTAC	0.581
GATGATTGTTCTCCCAGCTGATGAATTCGTGGGATCGAGTAAACAAATTTTCCTAATCTTTCTGTTCAAGCGCCATCTAC	0.367

Sequence	binding signal (RPM ratio (pull-down/input))
GATGATTGTTCTCCCAGCTGATGAATTGAGACAGTCGAGTAAACAAATTTTCCTAATCTTTCTGTTCAAGCGCCATCTAC	0.393
GATGATTGTTCTCCCAGCTGATGAATTTTGCTTGTCGAGTAAACAAATTTTCCTAATCTTTCTGTTCAAGCGCCATCTAC	5.89
GATGATTGTTCTCCCAGCTGATGAATTCTTCTAATCGAGTAAACAAATTTTCCTAATCTTTCTGTTCAAGCGCCATCTAC	0.276
GATGATTGTTCTCCCAGCTGATGAATTGGGGTGATCGAGTAAACAAATTTTCCTAATCTTTCTGTTCAAGCGCCATCTAC	0.475
GATGATTGTTCTCCCAGCTGATGAATTCACCCTTTCGAGTAAACAAATTTTCCTAATCTTTCTGTTCAAGCGCCATCTAC	0.325
GATGATTGTTCTCCCAGCTGATGAATTAGTAGTGTCGAGTAAACAAATTTTCCTAATCTTTCTGTTCAAGCGCCATCTAC	2.76
GATGATTGTTCTCCCAGCTGATGAATTGCATTGGTCGAGTAAACAAATTTTCCTAATCTTTCTGTTCAAGCGCCATCTAC	2.1
GATGATTGTTCTCCCAGCTGATGAATTTCGACTGTCGAGTAAACAAATTTTCCTAATCTTTCTGTTCAAGCGCCATCTAC	0.877
GATGATTGTTCTCCCAGCTGATGAATTGGGGCTCTCGAGTAAACAAATTTTCCTAATCTTTCTGTTCAAGCGCCATCTAC	0.383
GATGATTGTTCTCCCAGCTGATGAATTAAGGGCGTCGAGTAAACAAATTTTCCTAATCTTTCTGTTCAAGCGCCATCTAC	0.508
GATGATTGTTCTCCCAGCTGATGAATTCTAGTTCTCGAGTAAACAAATTTTCCTAATCTTTCTGTTCAAGCGCCATCTAC	0.594
GATGATTGTTCTCCCAGCTGATGAATTGTTGGTATCGAGTAAACAAATTTTCCTAATCTTTCTGTTCAAGCGCCATCTAC	4.81
GATGATTGTTCTCCCAGCTGATGAATTTTAAGTCTCGAGTAAACAAATTTTCCTAATCTTTCTGTTCAAGCGCCATCTAC	0.362
GATGATTGTTCTCCCAGCTGATGAATTCTTGAACTCGAGTAAACAAATTTTCCTAATCTTTCTGTTCAAGCGCCATCTAC	0.217
GATGATTGTTCTCCCAGCTGATGAATTTTTTCTATCGAGTAAACAAATTTTCCTAATCTTTCTGTTCAAGCGCCATCTAC	0.262
GATGATTGTTCTCCCAGCTGATGAATTTTGCTAGTCGAGTAAACAAATTTTCCTAATCTTTCTGTTCAAGCGCCATCTAC	2.86
GATGATTGTTCTCCCAGCTGATGAATTGCTGACTTCGAGTAAACAAATTTTCCTAATCTTTCTGTTCAAGCGCCATCTAC	0.938
GATGATTGTTCTCCCAGCTGATGAATTATTACTATCGAGTAAACAAATTTTCCTAATCTTTCTGTTCAAGCGCCATCTAC	0.535
GATGATTGTTCTCCCAGCTGATGAATTTATGCTATCGAGTAAACAAATTTTCCTAATCTTTCTGTTCAAGCGCCATCTAC	1.46
GATGATTGTTCTCCCAGCTGATGAATTAGGGGGGTCGAGTAAACAAATTTTCCTAATCTTTCTGTTCAAGCGCCATCTAC	0.692
GATGATTGTTCTCCCAGCTGATGAATTGGTTGAGTCGAGTAAACAAATTTTCCTAATCTTTCTGTTCAAGCGCCATCTAC	0.683

Sequence	binding signal (RPM ratio (pull-down/input))
GATGATTGTTCTCCCAGCTGATGAATTACATCACTCGAGTAAACAAATTTTCCTAATCTTTCTGTTCAAGCGCCATCTAC	0.786
GATGATTGTTCTCCCAGCTGATGAATTGGAACTCTCGAGTAAACAAATTTTCCTAATCTTTCTGTTCAAGCGCCATCTAC	0.343
GATGATTGTTCTCCCAGCTGATGAATTATAAGACTCGAGTAAACAAATTTTCCTAATCTTTCTGTTCAAGCGCCATCTAC	0.27
GATGATTGTTCTCCCAGCTGATGAATTCGATACCTCGAGTAAACAAATTTTCCTAATCTTTCTGTTCAAGCGCCATCTAC	0.674
GATGATTGTTCTCCCAGCTGATGAATTCGGCGACTCGAGTAAACAAATTTTCCTAATCTTTCTGTTCAAGCGCCATCTAC	1.54
GATGATTGTTCTCCCAGCTGATGAATTCACTTTTTCGAGTAAACAAATTTTCCTAATCTTTCTGTTCAAGCGCCATCTAC	0.363
GATGATTGTTCTCCCAGCTGATGAATTGTTGAGCTCGAGTAAACAAATTTTCCTAATCTTTCTGTTCAAGCGCCATCTAC	0.598
GATGATTGTTCTCCCAGCTGATGAATTCCCAGTCTCGAGTAAACAAATTTTCCTAATCTTTCTGTTCAAGCGCCATCTAC	0.283
GATGATTGTTCTCCCAGCTGATGAATTAGCCTTTTCGAGTAAACAAATTTTCCTAATCTTTCTGTTCAAGCGCCATCTAC	1.41
GATGATTGTTCTCCCAGCTGATGAATTCCCGCTGTCGAGTAAACAAATTTTCCTAATCTTTCTGTTCAAGCGCCATCTAC	0.339
GATGATTGTTCTCCCAGCTGATGAATTATCAGACTCGAGTAAACAAATTTTCCTAATCTTTCTGTTCAAGCGCCATCTAC	0.214
GATGATTGTTCTCCCAGCTGATGAATTACGGGAATCGAGTAAACAAATTTTCCTAATCTTTCTGTTCAAGCGCCATCTAC	0.263
GATGATTGTTCTCCCAGCTGATGAATTAGGGACCTCGAGTAAACAAATTTTCCTAATCTTTCTGTTCAAGCGCCATCTAC	0.304
GATGATTGTTCTCCCAGCTGATGAATTATACGCATCGAGTAAACAAATTTTCCTAATCTTTCTGTTCAAGCGCCATCTAC	1.13
GATGATTGTTCTCCCAGCTGATGAATTTTTATCGTCGAGTAAACAAATTTTCCTAATCTTTCTGTTCAAGCGCCATCTAC	0.38
GATGATTGTTCTCCCAGCTGATGAATTACTTTCGTCGAGTAAACAAATTTTCCTAATCTTTCTGTTCAAGCGCCATCTAC	0.398
GATGATTGTTCTCCCAGCTGATGAATTGGATGTTTCGAGTAAACAAATTTTCCTAATCTTTCTGTTCAAGCGCCATCTAC	1.75
GATGATTGTTCTCCCAGCTGATGAATTCGTCGGCTCGAGTAAACAAATTTTCCTAATCTTTCTGTTCAAGCGCCATCTAC	0.333
GATGATTGTTCTCCCAGCTGATGAATTAGAGGCTTCGAGTAAACAAATTTTCCTAATCTTTCTGTTCAAGCGCCATCTAC	0.788
GATGATTGTTCTCCCAGCTGATGAATTAGTCGTGTCGAGTAAACAAATTTTCCTAATCTTTCTGTTCAAGCGCCATCTAC	1.61
GATGATTGTTCTCCCAGCTGATGAATTAAAGTGTTCGAGTAAACAAATTTTCCTAATCTTTCTGTTCAAGCGCCATCTAC	0.592

Source: publication PMC12820563
